In ChEMBL document CHEMBL4888484, “Replenishing the malaria drug discovery pipeline: Screening and hit evaluation of the MMV Hit Generation Library 1 (HGL1) against asexual blood stage Plasmodium falciparum ,using a nano luciferase reporter read-out” (2022):
Out of some 150,000 compounds screened, about 540 (0.36%) showed an effect of 50% or more. Some of the results follow.

The compounds below were run on Plasmodium falciparum (assay: Primary screen in NF54 nanoGlo assay, in single point, at 2uM, 72h; a lower Z score goes with more inhibition). Settings: timepoint 72 hour.
Assay type: functional, Erythrocyte
`COc1ccccc1N1CCN(C(=O)c2nc3cc(C)c(C)cc3nc2OC)CC1` was tested, and the “% Inhibition” value was -6% and the Z score was 1.17.
`CC(=O)N(CC(F)(F)F)[C@H]1CCCOC1` was tested, and the “% Inhibition” value was 1% and the Z score was -0.1.
For `COc1ccc(-c2cn(CC(=O)NC3CCCCCC3)nn2)cn1`, the “% Inhibition” value was -5% and the Z score was 1.09.
In the case of `CN(Cc1ccccc1)C(=O)Cn1c(Cc2c(Cl)cccc2Cl)nc2ccccc21`, the “% Inhibition” value is reported as -1% and the Z score is reported as 0.11.
With `Cc1nnnn1Cc1nnc(-c2ccccc2)o1` the “% Inhibition” value was -2% and the Z score was 0.29.
With `C[C@H](NC(=O)C(C)(C)NC(=O)Nc1ccccc1)c1ccccn1` the “% Inhibition” value was -7% and the Z score was 0.88.
`Cn1ncnc1C1(O)CCN(c2nc(C(F)(F)F)cs2)CC1` was tested, and the “% Inhibition” value was -11% and the Z score was 1.13.
For `Cc1ccc2c(c1)C(c1ccccc1)=NNC(c1ccc(Cl)cc1)=N2`, the “% Inhibition” value was -5% and the Z score was 0.58.
In the case of `Cc1cc(C)c(CNC(=O)[C@@H]2COCCO2)c(=O)[nH]1`, the “% Inhibition” value is reported as 6% and the Z score is reported as -0.98.
`CC[C@H](C)CC(=O)N1CCCN(C2=NS(=O)(=O)C(c3ccc(C(C)C)cc3)=C2C)CC1` was tested, and the “% Inhibition” value was -14% and the Z score was 2.2.
In the case of `CC(C)(C)c1ccc(C(=O)N[C@H]2CC(=O)N(C3CC3)C2)cc1`, the “% Inhibition” value is reported as 9% and the Z score is reported as -1.17.
`Cc1ccc2c(c1)n(Cc1cccc(Cl)c1)c(=O)c1nc(C(=O)Nc3ccc(C(C)C)cc3)nn12` was tested, and the “% Inhibition” value was 2% and the Z score was -0.36.
`Cc1cc(C(=O)N2CC[C@H](n3c(C)nc4ccccc43)C2)c(C)o1` was tested, and the “% Inhibition” value was -2% and the Z score was 0.28.
`COC(=O)c1ccc(CN=C(N)Nc2ccc(OC)nc2)cc1` was tested, and the “% Inhibition” value was 3% and the Z score was -0.51.
For `COCC(=O)N[C@H]1CO[C@H]2[C@@H]1OC[C@@H]2n1nnnc1Oc1cccc(N(C)C)c1`, the “% Inhibition” value was 30% and the Z score was -3.49.
With `C=CCN(Cc1coc(-c2ccccc2)n1)S(=O)(=O)c1ccc(Cl)cc1` the “% Inhibition” value was -5% and the Z score was 0.89.
With `CO[C@@]1(C)CCCN(C(=O)CCc2ccccc2C(=O)O)CC1` the “% Inhibition” value was -2% and the Z score was 0.23.
With `CCc1ccc(-c2nc([C@H]3CCOC3)no2)cc1S(C)(=O)=O` the “% Inhibition” value was -9% and the Z score was 1.48.
With `Cc1cc(N2CCN(C)CC2)n2nc(-c3ccccc3)c(C)c2n1` the “% Inhibition” value was -16% and the Z score was 3.14.
`COc1ccc(NC(=O)Cn2c(=O)c(N3CCCC3)nc3ccccc32)cc1` was tested, and the “% Inhibition” value was 2% and the Z score was -0.28.
`FCCN1CCC(Cc2nc3ccccc3[nH]2)CC1` was tested, and the “% Inhibition” value was 19% and the Z score was -2.17.
For `CC(C)c1nc(CCNC(=O)N2CC[C@H](N3CCCCC3)C2)no1`, the “% Inhibition” value was -1% and the Z score was 0.17.
`CCO[C@H]1COC[C@@H]1NC(=O)Nc1ccc(Cl)cc1` was tested, and the “% Inhibition” value was -5% and the Z score was 0.97.
`COc1ccc(Br)cc1C(=O)Nc1c(-n2cnnc2)nn(C)c1C` was tested, and the “% Inhibition” value was -4% and the Z score was 0.55.
In the case of `O=C1C2CCCCN2C(=O)N1CC(O)COc1ccc(F)cc1` (stereo unspecified), the “% Inhibition” value is reported as -5% and the Z score is reported as 0.77.
For `CC(C)c1cc(C(=O)NCc2cncn2C2CC2)on1`, the “% Inhibition” value was -2% and the Z score was 0.36.
With `Cc1cccc(N2CCN(CCCNc3ncnc4onc(-c5ccc(F)cc5)c34)C[C@@H]2C)c1` the “% Inhibition” value was -16% and the Z score was 3.04.
In the case of `O=C(Cc1ccccc1F)N[C@H]1CCN(c2ccc(=O)n(CCOc3ccccc3)n2)C1`, the “% Inhibition” value is reported as -14% and the Z score is reported as 1.87.
With `Cn1cc(C(=O)NCC[C@H]2CCc3ccccc32)[nH]c1=O` the “% Inhibition” value was -6% and the Z score was 1.01.
With `O=C(N[C@H]1CCc2ccccc21)c1n[nH]c2c1CCCC2` the “% Inhibition” value was 25% and the Z score was -2.87.
For `CNc1snc(C)c1C(=O)N1CCC[C@H](NS(C)(=O)=O)C1`, the “% Inhibition” value was 1% and the Z score was -0.22.
With `COCCN1C(=O)CC(CC(=O)N(Cc2ccccc2)C[C@@H]2CCC(=O)N2)(c2ccccc2F)C1=O` (stereo partly specified) the “% Inhibition” value was 0% and the Z score was -0.02.
With `O=C(N1CCC[C@H]1c1csc(-c2ccoc2)n1)C(F)(F)F` the “% Inhibition” value was -11% and the Z score was 1.25.
In the case of `O=C1CN(C(=O)c2ccc(OCc3ccccc3)cc2)c2ccccc2N1`, the “% Inhibition” value is reported as 7% and the Z score is reported as -1.3.
With `C=C(C)CS(=O)(=O)N1CCC(CCCn2ccnc2)CC1` the “% Inhibition” value was -5% and the Z score was 0.57.
In the case of `CN(CC1(CO)CC1)C(=O)c1nc(-c2ccccc2)ns1`, the “% Inhibition” value is reported as -5% and the Z score is reported as 1.03.
`Cc1nn(Cc2ccccc2)c(C)c1CNC(=O)CCn1cnc2c(C)cccc2c1=O` was tested, and the “% Inhibition” value was -4% and the Z score was 0.6.
With `Cc1nccn1-c1cc(N2CCN(CC(C)C)CC2)nc2ccnn12` the “% Inhibition” value was -19% and the Z score was 2.18.
`COCCN(C)C[C@H]1C[C@H](CO)CN(Cc2ccc3cccc(F)c3n2)C1` was tested, and the “% Inhibition” value was 0% and the Z score was -0.06.
For `COc1cc2c(cc1CN1CCN3C(=O)CNC(=O)[C@@H]3C1)OCCCO2`, the “% Inhibition” value was -22% and the Z score was 1.94.
`Cc1cccc(-c2nc3cc(C)ccc3cc2CN2C[C@@H]3C(=O)NC(=O)[C@@H]3C2)c1` was tested, and the “% Inhibition” value was -5% and the Z score was 1.03.
With `COCCN(CC(=O)N(C)c1ccccc1F)C(=O)OC(C)(C)C` the “% Inhibition” value was -11% and the Z score was 2.05.
`NC(=O)C12CC(CN1C(=O)c1cnn(C3CC3)c1)C2` was tested, and the “% Inhibition” value was 23% and the Z score was -2.7.
With `Clc1ccc([C@@H]2CN(c3ccnc4ccccc34)CCO2)cc1` the “% Inhibition” value was -19% and the Z score was 1.74.
For `c1ccc(-c2nc(Oc3cccc4cccnc34)c3ccccc3n2)cc1`, the “% Inhibition” value was -6% and the Z score was 1.08.
With `CC(C)NC(=O)NC(c1cccs1)c1cccs1` the “% Inhibition” value was -1% and the Z score was 0.21.
`CO[C@H]1COCC[C@@H]1NC(=O)Cc1ccc(Cl)c(Cl)c1` was tested, and the “% Inhibition” value was -12% and the Z score was 2.16.
In the case of `Cc1ccc(CN2C(=O)N[C@@](C)(CC(C)C)C2=O)c(C)n1`, the “% Inhibition” value is reported as 0% and the Z score is reported as -0.02.
With `CC(C)(C)[C@H](NCCN1C(=O)CCC1=O)c1ccccc1` the “% Inhibition” value was -7% and the Z score was 0.87.
In the case of `CC1(C)Cc2cccc(NC(=O)CCc3nc(C4CCCC4)no3)c2O1`, the “% Inhibition” value is reported as -11% and the Z score is reported as 1.47.
In the case of `O=c1ccc(F)cn1CCc1ccc(F)c(F)c1`, the “% Inhibition” value is reported as -11% and the Z score is reported as 2.07.
For `Fc1ccc2c(c1)C(c1ccccc1)=NNC(c1ccccc1)=N2`, the “% Inhibition” value was -10% and the Z score was 1.13.
In the case of `Cc1cc(CNC(=O)NCCc2ncc(C)s2)n(C)n1`, the “% Inhibition” value is reported as -12% and the Z score is reported as 1.99.
